From the GPR68 mutational scans of Howard et al. (2025) come the findings set out here.

First the molecules themselves.
B1: GPR68, Q15743 (parent)
chain: MGNITADNSSMSCTIDHTIHQTLAPVVYVTVLVVGFPANCLSLYFGYLQIKARNELGVYLCNLTVADLFYICSLPFWLQYVLQHDNWSHGDLSCQVCGILLYENIYISVGFLCCISVDRYLAVAHPFRFHQFRTLKAAVGVSVVIWAKELLTSIYFLMHEEVIEDENQHRVCFEHYPIQAWQRAINYYRFLVGFLFPICLLLASYQGILRAVRRSHGTQKSRKDQIQRLVLSTVVIFLACFLPYHVLLLVRSVWEASCDFAKGVFNAYHFSLLLTSFNCVADPVLYCFVSETTHRDLARLRGACLAFLTCSRTGRAREAYPLGAPEASGKSGAQGEEPELLTKLHPAFQTPNSPGSGGFPTGRLA

Scores whose standard error is large were omitted. The source holds two more conditions with little spread; they are left out. Names with del lack the residues named; names with ins carry added residues between the positions named. For part of these data: How much ogerin was present is not stated here.

In data set [1] the parent is B1. The data set is described as follows: cAMP reporter score (Enrich2 score, wild type = 0); higher = more signal; HEK293T, FACS bins.
In data set [2] the parent is B1. The data set is described as follows: surface expression score (Enrich2 score, wild type = 0); higher = more signal; HEK293T, FACS bins.

On to Y188V, for which the cAMP reporter score is 0.173 in data set [1] (pH 5.5); -0.228 in data set [1] (pH 6, modulator: ogerin); -1.34 in data set [1] (pH 6.5, modulator: ogerin). The surface expression score in data set [2] was -2.2.
Take Y188H: the cAMP reporter score in data set [1] (pH 5.5) is 1.33; in data set [1] (pH 6) it was 4.66; in data set [1] (pH 6, modulator: ogerin) it was 0.695; in data set [1] (pH 6.5, modulator: ogerin), -0.558. Besides, in data set [2], the surface expression score was -1.58.
For the variant Y188I, the cAMP reporter score in data set [1] (pH 5.5) was -0.037; in data set [1] (pH 6, modulator: ogerin), -0.05; in data set [1] (pH 6.5, modulator: ogerin), -0.724.
Consider Y188R, for which the cAMP reporter score in data set [1] (pH 5.5) is 0.538; in data set [1] (pH 6.5, modulator: ogerin), -0.853. Besides, in data set [2], the surface expression score was -2.24.
For Y188L, in that order: 1.29, -1.92 and -1.6.
Turning to Y188S, the cAMP reporter score in data set [1] (pH 5.5) was -0.971; in data set [1] (pH 6) it was 0.887; in data set [1] (pH 6, modulator: ogerin), -0.43; in data set [1] (pH 6.5, modulator: ogerin) it was 0.271. In addition, in data set [2], the surface expression score is -1.83.
For Y188G, in that order: 0.46, 1.18, -0.622, -1.1 and -1.78.
For Y188C, in that order: -0.463, 0.56, -0.805, -0.355 and -0.805.
As for Y188W, the cAMP reporter score in data set [1] (pH 5.5) was 0.307; in data set [1] (pH 6) it was 2.98; in data set [1] (pH 6, modulator: ogerin), 0.168; in data set [1] (pH 6.5, modulator: ogerin) it was -0.417.
In the case of Y188M, the cAMP reporter score in data set [1] (pH 5.5) stood at 1.7; in data set [1] (pH 6), 3.41; in data set [1] (pH 6, modulator: ogerin) it was 1.66; in data set [1] (pH 6.5, modulator: ogerin), 0.46. Besides, the surface expression score in data set [2] is -1.55.
In the case of Y188F, the cAMP reporter score in data set [1] (pH 5.5) is -0.496; in data set [1] (pH 6), 1.08; in data set [1] (pH 6, modulator: ogerin), -0.643; in data set [1] (pH 6.5, modulator: ogerin), -0.587. Besides, the surface expression score in data set [2] was -0.48.
Y188Q: the cAMP reporter score in data set [1] (pH 5.5) is -0.822; in data set [1] (pH 6), -0.605; in data set [1] (pH 6.5, modulator: ogerin), 0.64.
In the case of Y187del, the cAMP reporter score in data set [1] (pH 5.5) is -0.92; in data set [1] (pH 6) it was -0.06; in data set [1] (pH 6, modulator: ogerin), -1.22; in data set [1] (pH 6.5, modulator: ogerin) it was -0.93. Besides, in data set [2], the surface expression score is -2.22.
In the case of L195_F196insGS, the cAMP reporter score in data set [1] (pH 5.5) was -1.91; in data set [1] (pH 6), -1.1; in data set [1] (pH 6.5, modulator: ogerin), -1.25. Besides, the surface expression score in data set [2] was -3.04.
L191_V192insGS: the cAMP reporter score in data set [1] (pH 5.5) is -1.92; in data set [1] (pH 6), -1.82; in data set [1] (pH 6, modulator: ogerin), -1.88; in data set [1] (pH 6.5, modulator: ogerin), -1.56. The surface expression score in data set [2] was -2.79.
Taken in the same sequence, the figures for G193_F194insG were -1.94, 0.05, -0.645, -1.14 and -2.93.
Taken in the same sequence, the figures for F190_L191insGSG were -1.08, -1.61, -1.82, -1.41 and -1.97.
For the variant F196T, the cAMP reporter score in data set [1] (pH 5.5) was -0.043; in data set [1] (pH 6, modulator: ogerin) it was 0.189; in data set [1] (pH 6.5, modulator: ogerin), -0.149. Also, the surface expression score in data set [2] is -1.38.
Take F196P: the cAMP reporter score turned out to be 0.364 in data set [1] (pH 5.5); 0.988 in data set [1] (pH 6); 0.18 in data set [1] (pH 6, modulator: ogerin). In addition, the surface expression score in data set [2] was -2.81.
With F196H, the cAMP reporter score in data set [1] (pH 5.5) is -1.45; in data set [1] (pH 6, modulator: ogerin) it was -1.76; in data set [1] (pH 6.5, modulator: ogerin), 0.181. Further, the surface expression score in data set [2] was -1.44.
Take F196I: the cAMP reporter score stood at 1.34 in data set [1] (pH 5.5); 2.66 in data set [1] (pH 6); 0.547 in data set [1] (pH 6, modulator: ogerin); 1 in data set [1] (pH 6.5, modulator: ogerin). In addition, the surface expression score in data set [2] stood at 1.3.
For F196A, in that order: -1.2, -0.173, -1.18, -0.728 and -2.04.
Turning to F196C, the cAMP reporter score in data set [1] (pH 5.5) is -0.041; in data set [1] (pH 6) it was -0.611; in data set [1] (pH 6, modulator: ogerin), -0.337; in data set [1] (pH 6.5, modulator: ogerin) it was -0.782. Moreover, the surface expression score in data set [2] was -1.07.
Taken in the same sequence, the figures for F196L were -0.347, -0.176, -0.803, -0.549 and 0.623.
Regarding F196Y, the cAMP reporter score was -1.62 in data set [1] (pH 5.5); -2.19 in data set [1] (pH 6, modulator: ogerin); -0.769 in data set [1] (pH 6.5, modulator: ogerin).
For F196K, the cAMP reporter score was -0.405 in data set [1] (pH 5.5); -2.92 in data set [1] (pH 6); -0.174 in data set [1] (pH 6.5, modulator: ogerin).
Take F196S: the cAMP reporter score in data set [1] (pH 5.5) was -0.11; in data set [1] (pH 6), -0.242; in data set [1] (pH 6, modulator: ogerin) it was -0.309; in data set [1] (pH 6.5, modulator: ogerin) it was -0.792. In addition, in data set [2], the surface expression score is -0.796.
Consider F196M, for which the cAMP reporter score in data set [1] (pH 5.5) was determined as 0.611; in data set [1] (pH 6), 0.968; in data set [1] (pH 6, modulator: ogerin), 0.877; in data set [1] (pH 6.5, modulator: ogerin), 0.636. Also, the surface expression score in data set [2] came to 0.66.
Taken in the same sequence, the figures for F196V were 1.99, 3.52, 1.99, 3.38 and 2.52.
Taken in the same sequence, the figures for F196G were -1.55, -1.08, -1.45, -1.1 and -2.28.
In the case of F196D, the cAMP reporter score in data set [1] (pH 5.5) is -1.73; in data set [1] (pH 6), -1.63; in data set [1] (pH 6.5, modulator: ogerin), -0.919. In data set [2], the surface expression score is -3.39.
For F196N, the cAMP reporter score was -0.409 in data set [1] (pH 5.5) and -0.438 in data set [1] (pH 6.5, modulator: ogerin).
As for F196R, the cAMP reporter score was -1.22 in data set [1] (pH 5.5); -1.26 in data set [1] (pH 6); -0.048 in data set [1] (pH 6.5, modulator: ogerin). The surface expression score in data set [2] was -3.09.
On to F196W, for which the cAMP reporter score in data set [1] (pH 5.5) was -0.2; in data set [1] (pH 6), 0.247; in data set [1] (pH 6, modulator: ogerin), 0.043; in data set [1] (pH 6.5, modulator: ogerin), -0.692. Further, the surface expression score in data set [2] is -2.09.
